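Briefly, cells in 96-well plates were exposed to five compound concentrations for 48 h, and endpoints were estimated by linear interpolation. GI50 = concentration required for 50% inhibition of growth. Definition used: TGI = concentration required for complete inhibition of growth.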 Bridge positions count the residues as written; N and C are the ends. Square brackets hold non-standard residues; d marks the D form. Peptide text beside a SMILES is read from it. * marks the point of attachment. Cbz = O=C(OCc1ccccc1)*; Aib = CC(C)(N)C(=O)O; OBn = c1ccc(CO*)cc1; βAla = NCCC(=O)O

This test deals with NCI-H322M lung. In words: NCI tumour cell line growth inhibition, 48 h.
The molecule `COc1cc(C2c3cc4c(cc3[C@H](OCCN(C)C)[C@@H]3COC(=O)C23)OCO4)cc(OC)c1O` (stereo partly specified) gave a TGI of 27.5 µM.

In turn, `CCOC(=O)NC(=O)c1cn(CCCOC(=O)NCCCCCCNC(=O)OCCCn2c(=O)c(C(=O)NC(=O)OCC)cn(C)c2=O)c(=O)n(C)c1=O` came in with a TGI of more than 100 µM.

Molecule `CC(C(=O)O)c1cnn(-c2ccccc2)c1-n1cccc1` (stereo unspecified) had a TGI of more than 100 µM.

On to `COC(=O)C(=O)C(C(=O)C(=O)Nc1ccc(C)cc1C)c1nc2ccccc2[nH]c1=O` (stereo unspecified), for which the TGI was more than 100 µM.

Take `N#Cc1nc(COCCOCc2ccccc2)oc1N`: the TGI was more than 100 µM.

`CC(=O)NNc1nc(C)c(C(/C=C/c2cccc([N+](=O)[O-])c2)=N/NC(=S)NN)s1` gave a TGI of more than 100 µM.

In turn, `N#CC1=C(N2CCCC2)NC(=O)CC1=O` registered a TGI of more than 100 µM.

`COC(=O)c1cc2c(c(C(=O)OC)c1O)C(=O)C=CC2=O` yielded a TGI of more than 100 µM.

Consider `COc1ccc(-c2nc(-c3nc4ccc(C)cc4[nH]3)c3ccccn23)cc1`, for which the GI50 is 2.38 µM and the TGI came to 7 µM.

`O=S(O)CCCCSSCCCCSSCCCCS(=O)O`: the TGI was more than 100 µM.

Turning to `CCCCCCCCCCC(O)C1CCC(C2CCC(C(O)CCCCC(O)CCCCCC(O)CC3=CC(C)OC3=O)O2)O1` (stereo unspecified), the GI50 is 7.57 µM and the TGI was more than 25 µM.

In turn, `Cc1nc(N)c(N2CCNCC2)c(=O)[nH]1` displayed a TGI of more than 100 µM.

The molecule `CN1CCC(OC(=O)Oc2ccccc2)(c2ccccc2)CC1` came in with a TGI of 49.9 µM.

As for `CC#CC(=O)Nc1ccccc1CC(c1c[nH]c2ccccc12)c1c[nH]c2ccccc12`, the TGI turned out to be 70.6 µM.

For `COc1ccc(C(=O)/C=C/c2cccnc2Nc2cc(OC)c(OC)c(OC)c2)cc1`, the GI50 is 5.69 µM and the TGI stood at 19.1 µM.

On to `O=C1c2ccccc2S[C@@H](O)[C@@H]2CCCN12`, for which the TGI was more than 100 µM.

Consider `O=C(CSc1nnc(Cc2ccccc2)o1)Nc1cccc([N+](=O)[O-])c1`, for which the TGI is more than 100 µM.

As for `Nc1nc(Cl)cc(NCC2(CO)COC2)n1`, the TGI was more than 100 µM.

Molecule `C[N+](C)(N)CCC[N+](C)(C)N` returned a TGI of more than 100 µM.

For the molecule `CN1C(NC(=O)c2ccc(Cl)nc2)=NS(=O)(=O)c2cc(Cl)ccc21`, the GI50 is 42.1 µM and the TGI was more than 100 µM.

Turning to `Cn1cc(C2=C(c3cn(C)c4c(N)cccc34)C(=O)NC2=O)c2ccccc21`, the GI50 was 3.68 µM and the TGI is more than 24.1 µM.

The molecule `c1ccc2c(c1)nc1n2CNCC1` had a TGI of more than 100 µM.

As to `Clc1ccc2c(NCCCCN=Cc3ccccc3)ccnc2c1`, the TGI turned out to be 48.5 µM.

For the molecule `COc1ccc(OC(=O)O[C@H]2[C@H](O[C@H]3[C@@H](O)COC(O[C@H]4C[C@H]5[C@@H]6CC=C7C[C@@H](O)CC[C@]7(C)[C@H]6CC[C@]5(C)[C@H]4[C@H](C)C(=O)CCC(C)C)[C@@H]3OC(C)=O)OC[C@@H](O)[C@@H]2O)cc1` (stereo partly specified), the GI50 is 9.1 µM and the TGI came out at 23.7 µM.

As for `Cn1cc(-c2csc(-c3cccc(F)c3)n2)c2cccnc21`, the GI50 was 17 µM and the TGI worked out at 45.3 µM.

In turn, `O=C(NCCCNC(=O)c1ccc2cc(O)c(O)cc2c1)c1ccc2cc(O)c(O)cc2c1` registered a TGI of more than 100 µM.

Turning to `COc1cc2c3c(n(CCCBr)c(=O)c2cc1OC)-c1ccc(NC(C)=O)cc1C3=O`, the GI50 was 30 µM and the TGI was more than 100 µM.

Turning to `Cc1cc(=O)[nH]c(NNC(C#N)c2ccc(O)cc2)n1` (stereo unspecified), the TGI is more than 100 µM.

`Cc1cc(O)c(/C=N/C(=S)NCCc2ccccc2)c(=O)o1`: the TGI is more than 100 µM.

The molecule `COc1ccc2c(c1)OCc1c-2oc2ccccc2c1=O` gave a TGI of more than 100 µM.

On to `Cc1cccc2c(N)c3cccc(C(=O)NCCCNCCN)c3nc12`, for which the TGI amounted to 18.2 µM.

For `CCSc1nc(N2CCOCC2)c2cn[nH]c2n1`, the TGI is more than 100 µM.

Turning to `CC1(C)NC(=O)C(NC(=O)C(CC(=O)OCc2ccccc2)NC(=O)OCc2ccccc2)CCCCNC(=O)CCNC1=O` (stereo unspecified) (Cbz-D(OBn)K[Aib][βAla]; lactam 2-C; configuration not given here), the TGI was more than 100 µM.

On to `COc1ccc2cc(C(=O)/C=C/c3cccc(OC)c3OC)ccc2c1`, for which the GI50 is 18.4 µM and the TGI came out at 40.4 µM.

`S=C(/N=c1/sc(Nc2ccccc2)nc2sc3c(c12)CCCC3)Nc1ccccc1` yielded a TGI of more than 62.5 µM.

As to `O=c1[nH]nc(-c2cccc(Br)c2)[nH]1`, the TGI is more than 100 µM.

Take `S=C1Cc2c([nH]c3ccccc23)-c2ccccc2N1`: the TGI amounted to 99.3 µM.

For `NCC(=O)NC(CCCC(NC(=O)CN)P(=O)(O)O)P(=O)(O)O` (stereo unspecified), the TGI is more than 100 µM.

`N#CCCN(CCC#N)c1ccc(/C=C2\N=C(CN3C(=O)c4ccccc4C3=O)OC2=O)cc1` gave a TGI of more than 100 µM.

As for `CC12CCCC(CC(=O)c3[nH]c4ccccc4c31)C2` (stereo unspecified), the GI50 is 5.77 µM and the TGI was more than 100 µM.

With `COc1cc(-c2c(C#N)c(N)n3c(nc4ccccc43)c2C#N)cc(Br)c1OC`, the GI50 is more than 100 µM and the TGI was more than 100 µM.

For the molecule `CCC1(O)C(=O)OCc2c1cc1n(c2=O)Cc2cc3c(N)cccc3nc2-1` (stereo unspecified), the TGI was 7.41 µM.

Turning to `C1=C2C3=[N+](CCCC3)CC2Cc2ccsc21` (stereo unspecified), the TGI is more than 100 µM.

Consider `Cc1c2c(nn1-c1ccc(S(=O)(=O)/N=C3\SCC(=O)N3C(=O)c3ccccc3)cc1)-c1ccccc1CC2`, for which the GI50 was more than 100 µM and the TGI was more than 100 µM.

Molecule `COC12C=CC(CC1)C(C)(C)C2=O` (stereo unspecified) had a TGI of more than 100 µM.

For the molecule `CCOC(=O)c1c(C)n(Cc2ccc(OC)cc2)c2c1cc(O)c1[nH]c3c(c12)CCCC3`, the GI50 is 2.83 µM and the TGI amounted to 27.7 µM.

In turn, `CC(C)(C)C1=CC(=CC=C2C=CN(CCCCCCCCCCCO)C=C2)C=C(C(C)(C)C)C1=O` gave a TGI of 7.21 µM.

For the molecule `COc1ccc(-c2cc3c(nn2)-c2ccccc2C3=O)cc1`, the GI50 was more than 100 µM and the TGI is more than 100 µM.

As to `COc1cc(C(=O)O[C@H](C(N)=O)[C@]2(C)CO2)c2ccccc2c1`, the GI50 is 27.2 µM and the TGI stood at 65.6 µM.

`CN(C)C(=S)SN(C)C(=O)Nc1ccccc1` had a TGI of more than 96.5 µM.

As to `COc1ccccc1N1C(=O)/C(=C\c2cccc(Oc3ccccc3)c2)SC1c1ccccc1` (stereo unspecified), the TGI was more than 100 µM.

As for `Cc1cc(C)cc(Nc2cc(C)nc3nc(C(F)(F)F)nn23)c1`, the GI50 was more than 100 µM and the TGI is more than 100 µM.

Take `CC(=O)NCc1nc(C#N)c(N)o1`: the TGI is more than 100 µM.

`COc1cc2c(c(OC)c1OC)-c1ccc(SC)c(=O)cc1C(CC(=O)Oc1ccc([N+](=O)[O-])cc1)C2` (stereo unspecified) gave a TGI of more than 50.2 µM.

As for `C=CCN1C(=O)/C(=C/c2ccccc2)NC1=S`, the TGI was more than 100 µM.

`CCCCn1c(C)c(C(=O)OCC)c2cc(OCc3ccc(C(=O)Nn4c(C)ccc4C)cc3)c(Br)cc21` returned a TGI of more than 100 µM.

For the molecule `NC(N)=N/N=C/c1c(Cl)nc2sccn12`, the TGI worked out at 88 µM.

With `COC(=O)C(=O)C(C(=O)C=C(C)C)C(=O)C(=O)Nc1ccc(Cl)cc1C` (stereo unspecified), the TGI is more than 100 µM.

`CCN(CC)Cc1cc(Nc2ccnc3ccc4c(nnn4C)c23)ccc1O` yielded a TGI of 37.8 µM.

On to `CC(C)=CC(=O)N1CCN(C(=O)C=C(C)C)CC1`, for which the TGI was more than 100 µM.

The molecule `Cc1ccc(NC(=O)C2C(=O)N(c3ccc(C)c(C)c3)C(=O)/C2=N/O)cc1C` (stereo unspecified) returned a TGI of more than 100 µM.

Turning to `O=C(CCCSc1nc(-c2ccc(Cl)cc2)cc(-c2ccc(Cl)cc2)n1)NO`, the GI50 was 0.597 µM and the TGI is 11.3 µM.

In turn, `CCc1cccc(C)c1NC(C)=O` showed a TGI of more than 100 µM.

`COc1ccc(C(=O)O)c(Cc2cccc3ccccc23)c1` displayed a TGI of more than 100 µM.

Turning to `CC(=O)[C@]1(O)Cc2c(O)c3c(c(O)c2C(OC2OC(C)C(O)C(O)C2F)C1)C(=O)c1ccccc1C3=O` (stereo partly specified), the TGI stood at 31 µM.

In the case of `NCCCNCCSSCCCCS(=O)O`, the TGI was more than 100 µM.

On to `CC(=O)OC1CC2OC(Cc3ccccc32)O1` (stereo unspecified), for which the TGI was more than 100 µM.

`Oc1cc(O)c2c(c1)O[C@H](c1cc(O)c(O)c(O)c1)[C@H](O)C2` showed a TGI of more than 100 µM.

Regarding `N#CCCN(CCC#N)c1ccc(C(=O)NN)cc1`, the TGI is more than 100 µM.

Values taken from PubChem BioAssay (NCI).
